B1: PA2G4, Q9UQ80 (protein)
chain: MSGEDEQQEQTIAEDLVVTKYKMGGDIANRVLRSLVEASSSGVSVLSLCEKGDAMIMEETGKIFKKEKEMKKGIAFPTSISVNNCVCHFSPLKSDQDYILKEGDLVKIDLGVHVDGFIANVAHTFVVDVAQGTQVTGRKADVIKAAHLCAEAALRLVKPGNQNTQVTEAWNKVAHSFNCTPIEGMLSHQLKQHVIDGEKTIIQNPTDQQKKDHEKAEFEVHEVYAVDVLVSSGEGKAKDAGQRTTIYKRDPSKQYGLKMKTSRAFFSEVERRFDAMPFTLRAFEDEKKARMGVVECAKHELLQPFNVLYEKEGEFVAQFKFTVLLMPNGPMRITSGPFEPDLYKSEMEVQDAELKALLQSSASRKTQKKKKKKASKTAENATSGETLEENEAGD
B2: NFKBID, Q8NI38 (protein)
chain: MEAGPWRVSAPPSGPPQFPAVVPGPSLEVARAHMLALGPQQLLAQDEEGDTLLHLFAARGLRWAAYAAAEVLQVYRRLDIREHKGKTPLLVAAAANQPLIVEDLLNLGAEPNAADHQGRSVLHVAATYGLPGVLLAVLNSGVQVDLEARDFEGLTPLHTAILALNVAMRPSDLCPRVLSTQARDRLDCVHMLLQMGANHTSQEIKSNKTVLHLAVQAANPTLVQLLLELPRGDLRTFVNMKAHGNTALHMAAALPPGPAQEAIVRHLLAAGADPTLRNLENEQPVHLLRPGPGPEGLRQLLKRSRVAPPGLSS
B3: MTA3, Q9BTC8 (protein)
chain: MAANMYRVGDYVYFENSSSNPYLIRRIEELNKTASGNVEAKVVCFYRRRDISNTLIMLADKHAKEIEEESETTVEADLTDKQKHQLKHRELFLSRQYESLPATHIRGKCSVALLNETESVLSYLDKEDTFFYSLVYDPSLKTLLADKGEIRVGPRYQADIPEMLLEGESDEREQSKLEVKVWDPNSPLTDRQIDQFLVVARAVGTFARALDCSSSVRQPSLHMSAAAASRDITLFHAMDTLYRHSYDLSSAISVLVPLGGPVLCRDEMEEWSASEASLFEEALEKYGKDFNDIRQDFLPWKSLTSIIEYYYMWKTTDRYVQQKRLKAAEAESKLKQVYIPTYSKPNPNQISTSNGKPGAVNGAVGTTFQPQNPLLGRACESCYATQSHQWYSWGPPNMQCRLCAICWLYWKKYGGLKMPTQSEEEKLSPSPTTEDPRVRSHVSRQAMQGMPVRNTGSPKSAVKTRQAFFLHTTYFTKFARQVCKNTLRLRQAARRPFVAINYAAIRAEYADRHAELSGSPLKSKSTRKPLACIIGYLEIHPAKKPNVIRSTPSLQTPTTKRMLTTPNHTSLSILGKRNYSHHNGLDELTCCVSD
B4: HSF4, Q9ULV5 (protein)
chain: MQEAPAALPTEPGPSPVPAFLGKLWALVGDPGTDHLIRWSPSGTSFLVSDQSRFAKEVLPQYFKHSNMASFVRQLNMYGFRKVVSIEQGGLLRPERDHVEFQHPSFVRGREQLLERVRRKVPALRGDDGRWRPEDLGRLLGEVQALRGVQESTEARLRELRQQNEILWREVVTLRQSHGQQHRVIGKLIQCLFGPLQAGPSNAGGKRKLSLMLDEGSSCPTPAKFNTCPLPGALLQDPYFIQSPLPETNLGLSPHRARGPIISDIPEDSPSPEGTRLSPSSDGRREKGLALLKEEPASPGGDGEAGLALAPNECDFCVTAPPPLPVAVVQAILEGKGSFSPEGPRNAQQPEPGDPREIPDRGPLGLESGDRSPESLLPPMLLQPPQESVEPAGPLDVLGPSLQGREWTLMDLDMELSLMQPLVPERGEPELAVKGLNSPSPGKDPTLGAPLLLDVQAALGGPALGLPGALTIYSTPESRTASYLGPEASPSP
B5: SIN3A, Q96ST3 (protein)
chain: MKRRLDDQESPVYAAQQRRIPGSTEAFPHQHRVLAPAPPVYEAVSETMQSATGIQYSVTPSYQVSAMPQSSGSHGPAIAAVHSSHHHPTAVQPHGGQVVQSHAHPAPPVAPVQGQQQFQRLKVEDALSYLDQVKLQFGSQPQVYNDFLDIMKEFKSQSIDTPGVISRVSQLFKGHPDLIMGFNTFLPPGYKIEVQTNDMVNVTTPGQVHQIPTHGIQPQPQPPPQHPSQPSAQSAPAPAQPAPQPPPAKVSKPSQLQAHTPASQQTPPLPPYASPRSPPVQPHTPVTISLGTAPSLQNNQPVEFNHAINYVNKIKNRFQGQPDIYKAFLEILHTYQKEQRNAKEAGGNYTPALTEQEVYAQVARLFKNQEDLLSEFGQFLPDANSSVLLSKTTAEKVDSVRNDHGGTVKKPQLNNKPQRPSQNGCQIRRHPTGTTPPVKKKPKLLNLKDSSMADASKHGGGTESLFFDKVRKALRSAEAYENFLRCLVIFNQEVISRAELVQLVSPFLGKFPELFNWFKNFLGYKESVHLETYPKERATEGIAMEIDYASCKRLGSSYRALPKSYQQPKCTGRTPLCKEVLNDTWVSFPSWSEDSTFVSSKKTQYEEHIYRCEDERFELDVVLETNLATIRVLEAIQKKLSRLSAEEQAKFRLDNTLGGTSEVIHRKALQRIYADKAADIIDGLRKNPSIAVPIVLKRLKMKEEEWREAQRGFNKVWREQNEKYYLKSLDHQGINFKQNDTKVLRSKSLLNEIESIYDERQEQATEENAGVPVGPHLSLAYEDKQILEDAAALIIHHVKRQTGIQKEDKYKIKQIMHHFIPDLLFAQRGDLSDVEEEEEEEMDVDEATGAVKKHNGVGGSPPKSKLLFSNTAAQKLRGMDEVYNLFYVNNNWYIFMRLHQILCLRLLRICSQAERQIEEENREREWEREVLGIKRDKSDSPAIQLRLKEPMDVDVEDYYPAFLDMVRSLLDGNIDSSQYEDSLREMFTIHAYIAFTMDKLIQSIVRQLQHIVSDEICVQVTDLYLAENNNGATGGQLNTQNSRSLLESTYQRKAEQLMSDENCFKLMFIQSQGQVQLTIELLDTEEENSDDPVEAERWSDYVERYMNSDTTSPELREHLAQKPVFLPRNLRRIRKCQRGREQQEKEGKEGNSKKTMENVDSLDKLECRFKLNSYKMVYVIKSEDYMYRRTALLRAHQSHERVSKRLHQRFQAWVDKWTKEHVPREMAAETSKWLMGEGLEGLVPCTTTCDTETLHFVSINKYRVKYGTVFKAP
B6: NFYB, P25208 (protein)
chain: MTMDGDSSTTDASQLGISADYIGGSHYVIQPHDDTEDSMNDHEDTNGSKESFREQDIYLPIANVARIMKNAIPQTGKIAKDAKECVQECVSEFISFITSEASERCHQEKRKTINGEDILFAMSTLGFDSYVEPLKLYLQKFREAMKGEKGIGGAVTATDGLSEELTEEAFTNQLPAGLITTDGQQQNVMVYTTSYQQISGVQQIQFS
B7: CEBPA, P49715 (protein)
chain: MESADFYEAEPRPPMSSHLQSPPHAPSSAAFGFPRGAGPAQPPAPPAAPEPLGGICEHETSIDISAYIDPAAFNDEFLADLFQHSRQQEKAKAAVGPTGGGGGGDFDYPGAPAGPGGAVMPGGAHGPPPGYGCAAAGYLDGRLEPLYERVGAPALRPLVIKQEPREEDEAKQLALAGLFPYQPPPPPPPSHPHPHPPPAHLAAPHLQFQIAHCGQTTMHLQPGHPTPPPTPVPSPHPAPALGAAGLPGPGSALKGLGAAHPDLRASGGSGAGKAKKSVDKNSNEYRVRRERNNIAVRKSRDKAKQRNVETQQKVLELTSDNDRLRKRVEQLSRELDTLRGIFRQLPESSLVKAMGNCA
B8: DDRGK1, Q96HY6 (protein)
chain: MVAPVWYLVAAALLVGFILFLTRSRGRAASAGQEPLHNEELAGAGRVAQPGPLEPEEPRAGGRPRRRRDLGSRLQAQRRAQRVAWAEADENEEEAVILAQEEEGVEKPAETHLSGKIGAKKLRKLEEKQARKAQREAEEAEREERKRLESQREAEWKKEEERLRLEEEQKEEEERKAREEQAQREHEEYLKLKEAFVVEEEGVGETMTEEQSQSFLTEFINYIKQSKVVLLEDLASQVGLRTQDTINRIQDLLAEGTITGVIDDRGKFIYITPEELAAVANFIRQRGRVSIAELAQASNSLIAWGRESPAQAPA
B9: CGGBP1, Q9UFW8 (protein)
chain: MERFVVTAPPARNRSKTALYVTPLDRVTEFGGELHEDGGKLFCTSCNVVLNHVRKSAISDHLKSKTHTKRKAEFEEQNVRKKQRPLTASLQCNSTAQTEKVSVIQDFVKMCLEANIPLEKADHPAVRAFLSRHVKNGGSIPKSDQLRRAYLPDGYENENQLLNSQDC
B10: GLI3, P10071 (protein)
chain: MEAQSHSSTTTEKKKVENSIVKCSTRTDVSEKAVASSTTSNEDESPGQTYHRERRNAITMQPQNVQGLSKVSEEPSTSSDERASLIKKEIHGSLPHVAEPSVPYRGTVFAMDPRNGYMEPHYHPPHLFPAFHPPVPIDARHHEGRYHYDPSPIPPLHMTSALSSSPTYPDLPFIRISPHRNPTAASESPFSPPHPYINPYMDYIRSLHSSPSLSMISATRGLSPTDAPHAGVSPAEYYHQMALLTGQRSPYADIIPSAATAGTGAIHMEYLHAMDSTRFSSPRLSARPSRKRTLSISPLSDHSFDLQTMIRTSPNSLVTILNNSRSSSSASGSYGHLSASAISPALSFTYSSAPVSLHMHQQILSRQQSLGSAFGHSPPLIHPAPTFPTQRPIPGIPTVLNPVQVSSGPSESSQNKPTSESAVSSTGDPMHNKRSKIKPDEDLPSPGARGQQEQPEGTTLVKEEGDKDESKQEPEVIYETNCHWEGCAREFDTQEQLVHHINNDHIHGEKKEFVCRWLDCSREQKPFKAQYMLVVHMRRHTGEKPHKCTFEGCTKAYSRLENLKTHLRSHTGEKPYVCEHEGCNKAFSNASDRAKHQNRTHSNEKPYVCKIPGCTKRYTDPSSLRKHVKTVHGPEAHVTKKQRGDIHPRPPPPRDSGSHSQSRSPGRPTQGALGEQQDLSNTTSKREECLQVKTVKAEKPMTSQPSPGGQSSCSSQQSPISNYSNSGLELPLTDGGSIGDLSAIDETPIMDSTISTATTALALQARRNPAGTKWMEHVKLERLKQVNGMFPRLNPILPPKAPAVSPLIGNGTQSNNTCSLGGPMTLLPGRSDLSGVDVTMLNMLNRRDSSASTISSAYLSSRRSSGISPCFSSRRSSEASQAEGRPQNVSVADSYDPISTDASRRSSEASQSDGLPSLLSLTPAQQYRLKAKYAAATGGPPPTPLPNMERMSLKTRLALLGDALEPGVALPPVHAPRRCSDGGAHGYGRRHLQPHDAPGHGVRRASDPVRTGSEGLALPRVPRFSSLSSCNPPAMATSAEKRSLVLQNYTRPEGGQSRNFHSSPCPPSITENVTLESLTMDADANLNDEDFLPDDVVQYLNSQNQAGYEQHFPSALPDDSKVPHGPGDFDAPGLPDSHAGQQFHALEQPCPEGSKTDLPIQWNEVSSGSADLSSSKLKCGPRPAVPQTRAFGFCNGMVVHPQNPLRSGPAGGYQTLGENSNPYGGPEHLMLHNSPGSGTSGNAFHEQPCKAPQYGNCLNRQPVAPGALDGACGAGIQASKLKSTPMQGSGGQLNFGLPVAPNESAGSMVNGMQNQDPVGQGYLAHQLLGDSMQHPGAGRPGQQMLGQISATSHINIYQGPESCLPGAHGMGSQPSSLAVVRGYQPCASFGGSRRQAMPRDSLALQSGQLSDTSQTCRVNGIKMEMKGQPHPLCSNLQNYSGQFYDQTVGFSQQDTKAGSFSISDASCLLQGTSAKNSELLSPGANQVTSTVDSLDSHDLEGVQIDFDAIIDDGDHSSLMSGALSPSIIQNLSHSSSRLTTPRASLPFPALSMSTTNMAIGDMSSLLTSLAEESKFLAVMQ

The list shows a part of the results. Binding of human transcription factors and regulators to the viral nucleoprotein by AlphaScreen, crude cell-free proteins, amounts not normalised, one pass. Fold of the Venus control; higher = more signal. No active / inactive call. Single-pass screen; sequences are the whole Swiss-Prot entries looked up by name.

For this assay, the target named is nucleoprotein N of Crimean-Congo hemorrhagic fever virus. Kind of assay: AlphaScreen luminescence signal relative to Venus negative control (fold); higher = stronger binding to CCHFV N. On the procedure: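 AlphaScreen binding of cell-free made, FLAG-GST-tagged human transcription factors and regulators (crude translation products) to biotinylated N protein; signal as fold of the FLAG-GST-Venus control. One pass.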
For orientation: In Alpha technology, singlet oxygen from a donor bead excites a nearby acceptor bead.
B1 displayed an AlphaScreen luminescence signal of 23.3.

For B2, the AlphaScreen luminescence signal was determined as 1.81.

B3 returned an AlphaScreen luminescence signal of 1.81.

The molecule B4 showed an AlphaScreen luminescence signal of 2.84.

With B5, the AlphaScreen luminescence signal is 1.4.

B6 came in with an AlphaScreen luminescence signal of 1.63.

Regarding B7, the AlphaScreen luminescence signal worked out at 1.02.

In turn, B8 returned an AlphaScreen luminescence signal of 6.7.

Consider B9, for which the AlphaScreen luminescence signal was determined as 2.6.

B10 came in with an AlphaScreen luminescence signal of 1.67.

(Values after the supplement of paper PMC12423691.)
